Measured values from a collection of fitness landscapes (doi:10.1016/j.celrep.2020.107928).
Over roughly 81,000 sequences, “one-hybrid fitness for binding NBS DNA” has its median near -0.1; the highest 2% begin near 0.36. Some of the results follow.

B1: Caulobacter ParB omega fusion; a variant is named by its letters at X, in order, B8GW30 (parent)
chain: MESVVVGEPGMSEGRRGLGRGLSALLGEVDAAPAQAPGEQLGGSREAPIEILQRNPDQPRRTFREEDLEDLSNSIREKGVLQPILVRPSPDTAGEYQIVAGERAWRAAQRAGLKTVPIMVRELDDLAVLEIGIIENVQRADLNVLEEALSYKVLMEKFERTQENIAQTIGKSXSHVANXMRLLXLPDEVQSYLVSGELTAXHARAIAAAADPVALAKQIIEGGLSVRETEALARKAPNLSAGKSKGGRPPRVKDTDTQALESDLSSVLGLDVSIDHRGSTGTLTITYATLEQLDDLCNRLTRGI

Variants of: B1
Assay: one-hybrid fitness for binding NBS DNA (the Noc-binding site; scaled: cognate 1, non-cognate 0); higher = stronger binding
Details: with NBS DNA site
Summary of the method: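 Pre- and post-selection plasmids were Illumina-sequenced, three replicate libraries were pooled, and any variant with under 10 reads was removed. The libraries were Caulobacter ParB with four specificity codons randomised, selected in E. coli USO through a HIS3 reporter whose site is 19 bp from the promoter. Cells grew 48 hours at 37°C on M9 without histidine, with 0.1 mM IPTG and 5 mM 3-AT. Fitness is the log change in variant-to-wild-type read ratio, rescaled against cognate and non-cognate.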

| Variant | one-hybrid fitness for binding NBS DNA |
| --- | --- |
| EIIG | ≤ 0.2 |
| SKYD | ≤ 0.2 |
| SFQG | ≤ 0.2 |
| TVNP | ≤ 0.2 |
| RTII | ≤ 0.2 |
| HALL | ≤ 0.2 |
| DSHC | ≤ 0.2 |
| GWGD | ≤ 0.2 |
| IHNC | ≤ 0.2 |
| ALLY | ≤ 0.2 |
| SHMI | ≤ 0.2 |
| PCMT | ≤ 0.2 |
| RQIY | ≤ 0.2 |
| TTKA | ≤ 0.2 |
| KSHG | ≤ 0.2 |
| TEPS | ≤ 0.2 |
| VTFG | ≤ 0.2 |
| YKHS | ≤ 0.2 |
| LWHN | ≤ 0.2 |
| GQPL | ≤ 0.2 |
| HSDC | ≤ 0.2 |
| RPQN | ≤ 0.2 |
| TASW | ≤ 0.2 |
| LMNP | ≤ 0.2 |
| ANDS | ≤ 0.2 |
| KVQS | ≤ 0.2 |

| Variant | one-hybrid fitness for binding NBS DNA |
| --- | --- |
| GMHD | ≤ 0.2 |
| NKTF | ≤ 0.2 |
| CQLR | ≤ 0.2 |
| SGAL | ≤ 0.2 |
| SRLL | ≤ 0.2 |
| VQDR | ≤ 0.2 |
| WIMG | ≤ 0.2 |
| LTFA | ≤ 0.2 |
| TSGY | ≤ 0.2 |
| ELMG | ≤ 0.2 |
| ITWM | ≤ 0.2 |
| FHKY | ≤ 0.2 |
| NITG | ≤ 0.2 |
| GWSM | ≤ 0.2 |
| RRSA | 0.605 |
| CYRT | ≤ 0.2 |
| GTHH | ≤ 0.2 |
| KNLW | ≤ 0.2 |
| ICAS | ≤ 0.2 |
| DTWE | ≤ 0.2 |
| CNCN | ≤ 0.2 |
| LPRY | ≤ 0.2 |
| FWHR | 0.228 |
| NPCI | ≤ 0.2 |
| SVWD | ≤ 0.2 |
| VRYS | ≤ 0.2 |

| Variant | one-hybrid fitness for binding NBS DNA |
| --- | --- |
| RVLD | ≤ 0.2 |
| DLII | ≤ 0.2 |
| LTPI | ≤ 0.2 |
| KTKQ | ≤ 0.2 |
| MPTG | ≤ 0.2 |
| QNPK | ≤ 0.2 |
| DIRN | ≤ 0.2 |
| LILK | ≤ 0.2 |
| NPIS | ≤ 0.2 |
| FCIG | ≤ 0.2 |
| HWSR | ≤ 0.2 |
| MNCS | ≤ 0.2 |
| TNAR | ≤ 0.2 |
| TRAF | ≤ 0.2 |
| HFGR | ≤ 0.2 |
| ATSN | ≤ 0.2 |
| QGRH | ≤ 0.2 |
| RWNM | ≤ 0.2 |
| TVCS | ≤ 0.2 |
| YVQM | ≤ 0.2 |
| KTPY | ≤ 0.2 |
| YGLL | ≤ 0.2 |
| VLLD | ≤ 0.2 |
| HFFR | ≤ 0.2 |
